Test results as given in patent US20180094059A1.

Target: antigen- and TRAIL receptor-expressing Colo205 cells
Test: flow cytometry, Colo205 cells

EC50: 1.33 nM
B1: scFvhu225-Fc-scTRAIL3-… (Fc fusion)
chain: DYKDDDDKGGGGSGTEVQLVESGGGLVQPGGSLRLSCAASGFSLTNYGVHWVRQAPGKGLEWLGVIWSGGNTDYNTPFTSRFTISRDNSKNTLYLQMNSLRAEDTAVYYCARALTYYDYEFAYWGQGTTVTVSSGGGGSGGGGSGGGGSDIQLTQSPSFLSASVGDRVTITCRASQSIGTNIHWYQQKPGKAPKLLIKYASESISGVPSRFSGSGSGTEFTLTISSLQPEDFATYYCQQNNNWPTTFGAGTKLEIKRAAAGGSGG[sequence of human IgG1 Fc omitted]GGSGGGSSGGGPQRVAAHITGTRGRSNTLSSPNSKNEKALGRKINSWESSRSGHSFLSNLHLRNGELVIHEKGFYYIYSQTYFRFQEEIKENTKNDKQMVQYIYKYTSYPDPILLMKSARNSCWSKDAEYGLYSIYQGGIFELKENDRIFVSVTNEHLIDMDHEASFFGAFLVGGGPQRVAAHITGTRGRSNTLSSPNSKNEKALGRKINSWESSRSGHSFLSNLHLRNGELVIHEKGFYYIYSQTYFRFQEEIKENTKNDKQMVQYIYKYTSYPDPILLMKSARNSCWSKDAEYGLYSIYQGGIFELKENDRIFVSVTNEHLIDMDHEASFFGAFLVGGGPQRVAAHITGTRGRSNTLSSPNSKNEKALGRKINSWESSRSGHSFLSNLHLRNGELVIHEKGFYYIYSQTYFRFQEEIKENTKNDKQMVQYIYKYTSYPDPILLMKSARNSCWSKDAEYGLYSIYQGGIFELKENDRIFVSVTNEHLIDMDHEASFFGAFLVG
